# From the supplement of paper PMC3334620
# Over roughly 33,000 sequences, “E-score (-0.5 to 0.5)” has its median near -0.043; the highest 2% begin near 0.37. Some of the results follow.
# Molecular target: T1, Upc2 (UniProt Q12151)
# T1 sequence: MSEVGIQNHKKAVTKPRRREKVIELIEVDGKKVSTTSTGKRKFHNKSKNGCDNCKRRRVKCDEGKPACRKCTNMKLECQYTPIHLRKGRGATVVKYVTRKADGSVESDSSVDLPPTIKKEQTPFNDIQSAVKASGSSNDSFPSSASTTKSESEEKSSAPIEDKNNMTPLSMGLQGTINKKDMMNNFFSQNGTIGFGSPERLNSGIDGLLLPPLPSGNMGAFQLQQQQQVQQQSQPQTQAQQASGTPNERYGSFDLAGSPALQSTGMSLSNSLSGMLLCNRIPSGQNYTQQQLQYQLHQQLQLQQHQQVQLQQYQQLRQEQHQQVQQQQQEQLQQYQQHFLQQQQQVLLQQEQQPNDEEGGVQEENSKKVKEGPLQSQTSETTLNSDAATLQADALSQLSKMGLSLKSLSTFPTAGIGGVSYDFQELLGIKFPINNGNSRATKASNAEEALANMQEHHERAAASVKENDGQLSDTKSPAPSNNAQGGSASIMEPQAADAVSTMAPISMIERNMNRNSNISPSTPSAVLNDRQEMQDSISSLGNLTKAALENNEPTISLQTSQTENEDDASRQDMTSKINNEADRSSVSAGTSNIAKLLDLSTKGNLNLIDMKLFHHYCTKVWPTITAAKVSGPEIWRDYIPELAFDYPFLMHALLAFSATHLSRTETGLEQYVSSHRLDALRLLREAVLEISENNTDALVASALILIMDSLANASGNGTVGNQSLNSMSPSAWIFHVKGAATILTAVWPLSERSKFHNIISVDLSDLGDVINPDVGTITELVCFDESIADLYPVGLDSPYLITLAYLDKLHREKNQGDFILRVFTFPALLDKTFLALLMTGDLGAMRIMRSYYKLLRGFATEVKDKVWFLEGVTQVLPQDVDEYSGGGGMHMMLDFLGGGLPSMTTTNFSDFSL
# Experiment: PBM E-score (8-mer binding enrichment) (E-score (-0.5 to 0.5)); higher = stronger / more preferred TF binding; most listed sequences are background and not binding sites
# Conditions: protein concentration: 200 nM; construct: GST-full length
# Procedure: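 Universal 'all 10-mer' protein binding microarrays (Agilent AMADID 015681) probed with GST-tagged S. cerevisiae TFs (full-length or DBD) made by in vitro transcription/translation (PURExpress), about 100-200 nM. Bound TF was detected with fluorescent anti-GST. Each ungapped 8-mer (which stands for itself and its reverse complement) is scored by the PBM enrichment score (E-score), a modified Wilcoxon-Mann-Whitney statistic from -0.5 to +0.5, computed with the Universal PBM Analysis Suite. Scale: above 0.35 generally sequence-specific binding.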
row,Sequence,PBM E-score
1,ACGCTCCT,0.0165
2,TACAGGTA,0.265
3,AAATCACT,0.0881
4,AAACCGGC,-0.0443
5,GCTTGCAC,0.0585
6,CCTATCAC,-0.207
7,CGAGACGA,0.213
8,GGCGCCCC,-0.209
9,ATTAGGCA,-0.0908
10,AGGAATAT,0.0737
11,ACTGAACT,-0.0256
12,AGGCTGCA,-0.203
13,GACCTATA,0.244
14,CAGGTTGC,-0.0756
15,CCGGCTAG,-0.228
16,GGCCACCC,-0.0635
17,GGGAGAAA,-0.036
18,GTGTATTA,0.0796
19,AGTGCACT,-0.22
20,CACATTGG,-0.179
21,ATCAATCA,0.0322
22,CGGCTGAA,-0.0225
23,ATCTGGAG,-0.207
24,TAGGTTGA,-0.08
25,CCGTGTGC,-0.306

row,Sequence,PBM E-score
1,GCAAGACC,-0.0223
2,CCTTCGGC,-0.284
3,CGCAGCCC,-0.0774
4,GGACAGCC,-0.0462
5,GGCCGACA,-0.0541
6,AGCGGCCG,0.18
7,CGGCTTCC,-0.208
8,AACCCTCA,-0.0288
9,GCGCTAGC,-0.0898
10,ATAGTAAT,0.0924
11,AGACCAGG,-0.122
12,AGTTACAA,-0.0507
13,CGTCCTAC,-0.234
14,TCCTTACA,-0.231
15,GCCACGCA,-0.0506
16,AAGTGTGA,-0.21
17,ATCTGGAA,-0.0378
18,CCGTACAC,0.382
19,CAAGGGGG,-0.129
20,GTGCTAGA,-0.281
21,GGAAAAAC,0.0964
22,GGCATTCA,-0.117
23,GCAGTGAC,-0.261
24,CACGCGTA,0.248
25,CTGTACCA,-0.134

row,Sequence,PBM E-score
1,AATGCTGC,0.0736
2,ATGACGTG,-0.203
3,ACGAAGCC,0.308
4,GACCACGA,0.00727
5,TCTATGCA,-0.2
6,ACACTAAG,0.0874
7,GAACATCC,-0.0253
8,CCCATACC,0.0537
9,AACTAGAT,-0.109
10,GACGGCGC,-0.0257
11,AGCGCAAA,0.0493
12,AGAATACT,-0.0804
13,AACTAGTA,-0.0317
14,AAGTGTCC,-0.117
15,CAACCAGA,0.0869
16,AGCCTTGG,-0.285
17,CCCAGAAG,-0.225
18,CGAGGCTA,0.11
19,CAAGTAAC,0.00235
20,CAACTAAA,-0.0762
21,AACGAGTT,0.399
22,CCCATTGA,-0.173
23,GCCATCAC,-0.158
24,ATGTATGA,-0.0355
25,GCACTCTA,-0.0835

row,Sequence,PBM E-score
1,CTCGTTAA,0.466
2,AATTCGGA,0.136
3,GGCGTCCA,-0.398
4,CAACGTTG,0.167
5,ATCTTTGC,0.0667
6,ACGTTTAA,0.407
7,AGTCAAAC,0.181
8,GCAAACAA,0.00753
9,ACGGGTAT,0.212
10,CAACATCG,-0.00483
11,GGCAACTA,-0.245
12,ACATAGGG,-0.164
13,GCTTTACA,0.136
14,CGGATCAG,-0.014
15,GATAAACA,-0.144
16,CTTGATAC,-0.0118
17,GAGCACTC,0.0756
18,GGACACCA,-0.23
19,CAGGCGCC,-0.151
20,GCCATAAC,-0.187
21,AAGCGCAC,0.0992
22,CTTCCACA,-0.103
23,AGGATTAC,0.0091
24,ATCGCCAC,-0.00953
25,CCTAAAAC,0.0327

row,Sequence,PBM E-score
1,TACTCATA,-0.0136
2,ATGTTAAG,-0.0242
3,ACGAGCTA,0.394
4,GAAATCCC,-0.0323
5,GGTCTGGA,-0.167
6,AAACTTTG,-0.00722
7,AACGAAAC,0.37
8,GGCGTCAC,0.0542
9,GGGCCCTA,-0.171
10,ACGATCAG,0.255
11,CTGAGCCA,-0.287
12,TGAAAGCA,-0.0222
13,AACATCTC,-0.16
14,GCTCCAAC,-0.0332
15,GTAACCTA,0.0311
16,AGGAGCGG,-0.341
17,AAGGCCAC,-0.22
18,CCACCAGC,0.0943
19,GACGCCGA,0.0196
20,GCCGGGAC,-0.295
21,CCCCATTC,-0.0233
22,GAAACTGC,-0.0568
23,CGAGTTCC,0.115
24,TAATCATA,-0.00869
25,ATGCCACA,-0.272

row,Sequence,PBM E-score
1,GGAGGTAC,0.00952
2,TCCCGCGA,0.0149
3,ACTTATGC,0.0622
4,GAGATATC,0.0314
5,CGCCGTAG,0.0712
6,CAAAACTC,-0.0729
7,GGCGAACC,-0.0689
8,GCCCGCTA,0.0529
9,CGAATTAC,0.162
10,TGATGACA,-0.108
11,AGGGTGCG,-0.158
12,CGGGTCCA,-0.194
13,CCGCGCGG,0.107
14,ACAATACA,0.0574
15,ACCAATAC,0.0919
16,TTAACAAA,0.224
17,CGATACAA,0.0776
18,AGAGAGCA,-0.067
19,CACAAATA,-0.0613
20,GCGTCGCA,0.19
21,CCCAGGAG,-0.182
22,CCAGGGCA,-0.19
23,ACGGGATA,0.156
24,ATAAGGTC,0.00487
25,AGTACTTA,0.0953

row,Sequence,PBM E-score
1,AGCCAACG,-0.0177
2,AGCGAACT,0.0961
3,GACATATC,-0.0405
4,CAGAACAA,0.059
5,CCTCGAGC,0.0464
6,AATGACCA,-0.157
7,CGTGCACA,-0.156
8,AGTTCGAC,-0.161
9,TCGGAAAA,0.234
10,GCTCCGCA,-0.119
11,ATGCATTC,0.0394
12,CCCTCGAA,-0.0244
13,GCAACTTA,0.0374
14,ACCACTAC,-0.0851
15,GTGCTAAA,0.0334
16,CATAGCCG,-0.286
17,AACAGCAT,-0.0641
18,ATAGGGCA,-0.339
19,CCATACCG,-0.0343
20,TATGAATA,0.0594
21,AGTACCTA,-0.109
22,AGTTAACA,-9e-05
23,GTAAACAC,0.277
24,CACTTTCA,-0.151
25,GCATGACC,-0.263

row,Sequence,PBM E-score
1,GACCGTCA,-0.286
2,CAGCCGGA,-0.0451
3,AATACTGC,0.0614
4,AGCTCGAA,0.0873
5,CAATGGCG,-0.141
6,TCGAGGCA,-0.015
7,GTGCCGCA,-0.0154
8,TCATTCCA,-0.0256
9,TCGAATCA,-0.0776
10,GCCCACAA,-0.0313
11,ACGGCACC,0.199
12,ACTCCTTA,-0.0363
13,CATTCCTA,-0.0331
14,AAGTATAA,0.102
15,CAGTTACC,-0.0817
16,GATAAATC,0.0802
17,ACGGGACT,0.142
18,ACCTAAGT,0.00773
19,ATTGTCAA,0.00499
20,AACTAACC,0.168
21,CGAGAGCC,0.0411
22,GAAATGGC,0.0293
23,AAAAGCGC,-0.108
24,CGTAGGGC,0.121
25,AATTGACA,-0.115

row,Sequence,PBM E-score
1,CAGCGGTA,0.00894
2,CATAGAAG,-0.219
3,ACGCCGCA,0.158
4,TCCCTCCA,-0.196
5,AGCCTAGA,-0.0726
6,GTGCGTAA,0.211
7,ACAAGAGC,-0.125
8,CAGACAGC,-0.264
9,ATGTATTG,-0.0394
10,AATTCCTG,-0.147
11,CTTCGCAC,0.102
12,TGGAACAA,0.0155
13,AATGCGCA,0.0579
14,AGTTACGG,0.0766
15,GTCTCATA,-0.0606
16,CATTTTTC,0.0327
17,TCACCACA,-0.152
18,ATTACAAA,0.00437
19,CAGGTATC,-0.065
